From paper PMC4336329 (PLoS ONE, 2015)
The whole screen tested about 310,000 compounds, of which about 2,200 (0.71%) showed an effect of 50% or more. Effects have a minus sign here. Some of the results follow.

biological target: human ether-à-go-go-related gene (hERG) potassium channel (human, UniProt Q12809); assay: primary screen, population patch clamp on CHO cells stably expressing hERG
Sequence (Q12809 whole entry, looked up): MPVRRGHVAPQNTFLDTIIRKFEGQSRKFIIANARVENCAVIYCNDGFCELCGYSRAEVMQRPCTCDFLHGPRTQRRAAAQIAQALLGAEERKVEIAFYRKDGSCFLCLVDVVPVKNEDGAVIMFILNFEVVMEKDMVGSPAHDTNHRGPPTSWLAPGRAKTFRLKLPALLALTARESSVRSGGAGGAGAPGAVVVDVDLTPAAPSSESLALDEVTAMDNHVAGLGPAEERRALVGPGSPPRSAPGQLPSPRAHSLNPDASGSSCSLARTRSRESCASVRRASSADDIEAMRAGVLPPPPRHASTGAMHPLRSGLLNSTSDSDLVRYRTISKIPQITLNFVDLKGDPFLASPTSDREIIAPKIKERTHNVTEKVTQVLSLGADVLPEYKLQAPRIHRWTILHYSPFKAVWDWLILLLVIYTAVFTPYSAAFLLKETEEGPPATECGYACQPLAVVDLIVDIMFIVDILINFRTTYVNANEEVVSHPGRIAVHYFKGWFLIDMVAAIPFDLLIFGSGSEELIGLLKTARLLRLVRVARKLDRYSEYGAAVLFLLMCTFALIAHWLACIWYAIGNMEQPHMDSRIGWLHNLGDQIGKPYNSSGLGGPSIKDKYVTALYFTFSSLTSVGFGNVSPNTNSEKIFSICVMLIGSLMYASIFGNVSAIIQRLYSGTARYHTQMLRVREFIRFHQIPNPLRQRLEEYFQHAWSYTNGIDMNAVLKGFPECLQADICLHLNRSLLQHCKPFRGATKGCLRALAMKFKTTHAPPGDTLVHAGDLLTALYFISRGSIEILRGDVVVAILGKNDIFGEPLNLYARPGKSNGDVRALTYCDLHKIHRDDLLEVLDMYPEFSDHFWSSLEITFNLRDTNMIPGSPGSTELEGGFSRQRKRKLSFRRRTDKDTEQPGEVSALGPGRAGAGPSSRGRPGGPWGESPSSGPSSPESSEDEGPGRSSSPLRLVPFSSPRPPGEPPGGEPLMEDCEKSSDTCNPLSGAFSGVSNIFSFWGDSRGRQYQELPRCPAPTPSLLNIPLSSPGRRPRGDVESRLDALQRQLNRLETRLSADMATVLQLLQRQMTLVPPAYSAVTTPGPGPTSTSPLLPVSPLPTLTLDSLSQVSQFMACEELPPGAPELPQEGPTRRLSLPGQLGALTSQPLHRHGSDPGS

| Compound | hERG current change (%, negative = inhibition) at 1uM [%] |
| --- | --- |
| COc1ccc(S(=O)(=O)N2CCCCCC2)cc1N | -6.16 |
| O=c1c2cc(F)ccc2sn1-c1ccc(F)cc1 | 12.5 |
| CCOC(=O)c1ccc(NC(=O)Nc2ccccn2)cc1 | 17.3 |
| Cc1cc(N)n(Cc2cccs2)n1 | -4.3 |
| CCOC(=O)c1sc(NC(=O)C2CC2)nc1C | 7.82 |
| CC1(C)Cc2c(sc3ncnc(N)c23)CO1 | 4.62 |
| Cc1ccccc1-c1cc(C(=O)N/N=C/c2cccnc2)c2ccccc2n1 | 5.16 |
| COc1ccc(C2=Nn3c(nnc3C(F)(F)F)SC2)cc1 | 7.11 |
| CCCCC(=O)Nc1cc([N+](=O)[O-])ccc1Cl | 15.5 |
| CN(C)C(CNC(=O)CCCN1C(=O)c2cccc3cccc(c23)C1=O)c1ccccc1 (centres unmarked) | -1.32 |
| COc1ccc(OC)c(/C=N/NC(=O)CCCC(=O)Nc2cccc(Br)c2)c1 | 14.8 |
| C/C(=N\Nc1ccc(S(N)(=O)=O)cc1[N+](=O)[O-])c1cccnc1 | 16.2 |
| CCCCn1c(N)c(N(CC)C(=O)C2CCC2)c(=O)[nH]c1=O | 10.1 |
| CC1=C(C(=O)OCC2CCCO2)C(c2ccc(F)cc2)NC(=O)N1 (centres unmarked) | 13 |
| COc1ccc(N(C(=O)c2ccc(F)cc2)C2=CC3CCC(C2)N3C)cc1.Cl (centres unmarked) | -50.3 |
| COc1ccc(OC)c(NC(=O)CCn2ccnc2)c1 | 15.3 |
| COc1cc(/C(C)=C/c2ccccc2)c2c(c1)oc1ccccc12 | 12.8 |
| COc1ccc(OC)c(C2CC(=O)C3=C(C2)NC(=O)CC3c2ccc(O)c(OC)c2)c1 (centres unmarked) | 11.9 |
| CC(C)(C)NC(=O)CSc1nnc(-c2ccccn2)n1Cc1ccccc1 | -0.219 |
| COc1ccc2[nH]c3nc(SCc4nnc(-c5ccc(C)cc5)o4)nnc3c2c1 | 3.98 |
| O=C(c1n[nH]c2c1CCCC2)n1ccnc1 | 15 |
| O=C(c1ccccc1)C1CCN(c2ncccc2[N+](=O)[O-])CC1 | 14.7 |
| CCOC(=O)c1sc(N2C(=O)C(O)=C(C(=O)c3ccco3)C2c2cccc(Cl)c2)nc1C (centres unmarked) | 2.5 |

| Compound | hERG current change (%, negative = inhibition) at 1uM [%] |
| --- | --- |
| CC(CCc1ccco1)NC(=O)Nc1cccc(F)c1 (centres unmarked) | -21.7 |
| CCOC(=O)C1CCN(C(C)C(=O)c2c(C)[nH]c3cc(C)ccc23)CC1 (centres unmarked) | -66.9 |
| COCCOc1ccc(C(F)(F)F)cc1NC(=O)COC(=O)C12CC3CC(CC(O)(C3)C1)C2 | -13.5 |
| COc1ccc(S(=O)(=O)N2CCc3cc(OC)c(OC)cc3C2)cc1 | 5.4 |
| Cl.OC(CNC1CCCC1)COCCOc1ccc(Br)cc1 (centres unmarked) | 4.92 |
| COCCN(C(=O)c1cc(Cl)ccn1)c1c(N)n(Cc2ccccc2)c(=O)[nH]c1=O | 10.9 |
| CC(C)NS(=O)(=O)c1ccc(NC(=O)C(C)Oc2ccc(C(=O)c3ccccc3)cc2)cc1 (centres unmarked) | 5.25 |
| COc1ccc(/C(O)=C2/C(=O)C(=O)N(CCN(C)C)C2c2cccnc2)cc1OC (centres unmarked) | 1.09 |
| Cn1c(-c2ccccc2)c(C=O)c2ccccc21 | 0.386 |
| Cc1ccc(-n2c(N)cc(=O)nc2SCC(=O)N2CCN(c3ccccc3)CC2)cc1C | 11.1 |
| CCCn1c(C2CC(=O)N(c3cc(OC)ccc3OC)C2)nc2ccccc21 (centres unmarked) | 1.05 |
| CC(=O)Nc1ccc(S(=O)(=O)N2CCN(c3cc(C(F)(F)F)ccn3)CC2)cc1 | 9.39 |
| Cc1ccc(S(=O)(=O)N(c2cccc(C(F)(F)F)c2)C2C=CS(=O)(=O)C2)cc1 (centres unmarked) | 10.4 |
| COC(=O)Nc1ccc(SCC(=O)c2ccc(Cl)cc2)cc1 | 19.5 |
| COc1ccc(C(=O)NC(=S)NNC(=O)c2c(-c3ccccc3)noc2C)cc1 | 15.6 |
| O=C(CNC(=O)OCc1ccccc1)Nc1ccc(F)cc1 | 9.42 |
| Oc1ccc(-c2nc3ncccn3c2Nc2ccc3c(c2)OCO3)cc1 | 10.7 |
| COc1ccc(C2CC(c3cccs3)=NN2c2ccccc2)cc1 (centres unmarked) | 6.86 |
| O=C(O)CCC1(C(=O)O)OCCc2ccccc21 (centres unmarked) | 2.75 |
| O=C(Nc1ccnn1C1CCN(C/C=C/c2ccccc2)CC1)C1CCCC1 | -78.4 |
| Cc1ccc(S(=O)(=O)N2CCOCC2)cc1NC(=O)COC(=O)CCC(=O)c1cccs1 | 5.96 |
| COc1ccc2c(c1)[C@@]13CCC=C[C@H]1[C@@H](C2)NCC3.Cl | 9.55 |
| NS(=O)(=O)c1ccc(CCNCC(=O)NC2CC2)cc1 | -36 |

| Compound | hERG current change (%, negative = inhibition) at 1uM [%] |
| --- | --- |
| O=C1CSC(c2cn(-c3ccccc3)nc2-c2cc3ccccc3oc2=O)N1Cc1ccco1 (centres unmarked) | 10.3 |
| CCCOc1ccc(C2C(C(=O)OC)=CN(CCOC)C=C2C(=O)OC)cc1 | -5.54 |
| O=C(CNC(=S)N(Cc1ccccc1)Cc1cccnc1)NCc1ccccc1 | 0.171 |
| CC1CCN(C(=O)c2[nH]cnc2C(=O)Nc2cccc(Cl)c2)CC1 | 13.9 |
| COc1cccc(S(=O)(=O)NCc2ccc(C(=O)N3CCN(Cc4ccccc4)CC3)cc2)c1 | 14.5 |
| CCN(CC)S(=O)(=O)c1ccc(OC)c(NC(=O)CSc2ccccc2)c1 | -39.9 |
| Cc1ccc(NC(=S)N2CCC(N(C)CC3CCCO3)CC2)cc1 (centres unmarked) | 4.55 |
| CSc1ccc(Cl)c(C(=O)OCC(=O)NCC(C)C)c1 | -6.71 |
| CC1=C/C(=N\OS(=O)(=O)c2ccccc2)C(C(C)C)=CC1=O | 7.6 |
| O=S(=O)(NN1CCOCC1)c1ccc(Br)s1 | 10.3 |
| Cc1cccc(OCCNC(=O)CSc2ccc(C(F)(F)F)cc2[N+](=O)[O-])c1 | 7.89 |
| COc1cc(/C=C/C(=O)O)cc(S(=O)(=O)Nc2ccc3[nH]c(=O)[nH]c3c2)c1OC | 14.7 |
| O=C(NNC(=S)Nc1cccc(C(F)(F)F)c1)c1ccc(Cl)cc1Cl | 8.09 |
| CCC(C)(C(=O)NC1CCCCC1)N(C(=O)CNC(C)=O)c1c(C)n(C)n(-c2ccccc2)c1=O (centres unmarked) | 6.89 |
| c1ccc(-c2nnc(-c3ccccn3)s2)nc1 | 16.9 |
| Cc1cccc(-c2ccc(NC(=O)C3CCN(CC4CC4)CC3)cc2)c1 | -5.16 |
| CC(C)(C)OC(=O)NCCCCCc1nnc(SCc2c(F)cccc2Cl)o1 | 13 |
| Cc1cc(C(=O)CSc2nc3ccc(Cl)cc3[nH]2)c(C)n1Cc1ccco1 | 10.2 |
| COc1ccc(C(=O)COC(=O)CCN2C(=O)C3C4CC(C(Br)C4Br)C3C2=O)cc1 (centres unmarked) | 13.9 |
| Cc1ccc(S(=O)(=O)N2CCN(C(=O)c3ccc4c(c3)OCO4)CC2)cc1 | 5.5 |
| CSc1nc2ccsc2c(=O)n1-c1ccccc1 | 9.33 |
| CCN(CC(=O)Nc1ccccc1C(F)(F)F)C(=O)c1cccc(S(=O)(=O)N2CCN(C)CC2)c1 | 4.93 |
| C=CCNC(=O)c1ccc(-c2nc(-c3ccc(Cl)c(Cl)c3)cs2)cc1 | 9.5 |

| Compound | hERG current change (%, negative = inhibition) at 1uM [%] |
| --- | --- |
| Cl.Clc1ccc(CSc2nnc([C@@H]3CCCN3)o2)cc1 | 2.12 |
| Cc1nnc(SCC(=O)c2cc(C)n(-c3ccc4c(c3)OCO4)c2C)s1 | 8.02 |
| O=C(NCc1ccccc1)c1c(Cl)nc(Cl)c(Cl)c1Cl | 17.3 |
| CCOc1ccc(S(=O)(=O)N2CCOCC2)cc1NS(=O)(=O)c1ccc(OC)c([N+](=O)[O-])c1 | -13 |
| Cc1nc2nc(SCC(=O)NCCCN3CCCCCC3)nn2c(C)c1Cc1ccccc1Cl | -1.29 |
| O=C(OCc1cccc([N+](=O)[O-])c1)c1cnccn1 | 10.3 |
| COc1ccc(CNC(=O)c2noc3c2CCCC3)cc1 | 3.2 |
| CCOC(=O)c1cc(C#N)c(Nc2ccccc2OC)nc1C(F)(F)F | 10.2 |
| Cc1ccc(CC(=O)NCCc2ccc(S(N)(=O)=O)cc2)cc1 | 12.1 |
| COc1ccc2oc(=N)c(-c3nnc4n3CCCCC4)cc2c1 | 1.02 |
| C=C(C)COc1ccc(C2NC(=O)c3ccccc3O2)cc1OCC (centres unmarked) | 15.7 |
| NCCCNC(=O)c1ccc(/C=N/O)nc1 | 12.3 |
| COc1ccc(NC(=O)c2cccnc2)cc1OCC(C)C | 4.4 |
| CCC(C)NCC(=O)Nc1ccc(S(N)(=O)=O)cc1 (centres unmarked) | 17.7 |
| O=C1CCN(C(=O)c2cccs2)c2ccccc21 | 0.657 |
| O=C1NC(=Nc2ccc(Cl)cc2)SC1Cc1cc(Cl)ccc1Cl (centres unmarked) | 21.6 |
| CCOC(=O)Cc1csc(NC(=O)C2CCCCC2C(=O)O)n1 (centres unmarked) | 9.08 |
| CCN(C(=O)COC(=O)/C=C/c1cccc(Br)c1)C1CCS(=O)(=O)C1 (centres unmarked) | -4.71 |
| O=C1CCc2cc(NS(=O)(=O)c3cc(F)ccc3F)cc3c2N1CC3 | 11.8 |
| COC(=O)c1scc(S(=O)(=O)C(C)C)c1N/N=C(\C#N)C(=O)c1ccc(Cl)cc1 | 16.1 |
